The supplement of paper PMC11417369
The other results are listed elsewhere or left out.

The sequences below were run on PfSIP2 AP2 domain 1 (GST-tagged) (assay: gcPBM binding intensity (ln(normalized median fluorescence intensity)); higher = stronger DNA binding).
Method in brief: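 The highest Masliner-normalised natural-log median intensity across replicate spots of either probe orientation is reported as binding intensity. GST-tagged P. falciparum DNA-binding domains expressed in E. coli were applied for 1 h to an Agilent 4 × 180k array of primer-extended double-stranded 36-bp intergenic genomic probes plus negative controls, and bound protein was detected with Alexa488 anti-GST antibody and scanned at 488 nm.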

Row | Sequence | gcPBM binding intensity (ln)
1 | CATACATACATACATACACACATATATATATATATG [CACACA_site1995] | 8.02
2 | TTATTTATTTTCATATGTACTTATTTATAGAGGTTG [XGTACX_site5599] | 7.28
3 | AATAATATACCTCTTGTGCACATATTAAAAGTTCAT [GTGCAC_site9536] | 9.3
4 | TTCGTCTTTTTTCTCACACACCCTTTTTATTAAAAG [CACACA_site7225] | 7.86
5 | AAAGAATACATATATTGTACATATATATATACCGTT [XGTACX_site6250] | 6.94
6 | AGAATTAAAATAAAGGTGCATTTTTTTGTTTCATGT | 11
7 | ATAATACAAAACACAAGTACATAAATTAAAAAGATG [XGTACX_site7839] | 7.1
8 | TTCATTCATTTTATTACACACAAAAAAAAAAAAAAA [CACACA_site3680] | 7.13
9 | AGTTATTTTATAGAATATGAATAATTTTACTTTTCA [XGTACX_negctrl_site403] | 6.55
10 | AAAAAAAAAGGTACTACACACTATTCTCAATAGAAA [CACACA_site6193] | 6.64
11 | AATTTCATTTTACTTATCTAATATTTATAATCTTTT [CACACA_negctrl_site636] | 6.9
12 | AATTTTTATATAATTTAACACACATTTCATATAAAA [CACACA_site9018] | 7.15
13 | TTAGGATATTTATTTCGTACATATATTTTTAATTGT [XGTACX_site582] | 6.9
14 | TATAAATTATTTATCACACATAAAACAAAAATAAGA [CACACA_site5493] | 7.32
15 | TACTTCATATAATTAGCACACAATAATTTCTCATTT [CACACA_site2872] | 7.23
16 | ATATATATTAAAAATAGTACATATAATAAAAATCAT [XGTACX_site4265] | 7.11
17 | TACATATTCCTACAAATGTATAAATTATAAATATTA [XGTACX_negctrl_site30] | 6.82
18 | AACGATATAGGTACTACACACATTATGTCATCCTAT [CACACA_site7205] | 6.95
19 | TGTATATGTTTAATTAGTACATATAAAGTAACAATA [XGTACX_site1207] | 7.04

Row | Sequence | gcPBM binding intensity (ln)
20 | ATATGAAATATATGTAGTACACATAATTAAAAGTAG [XGTACX_site6490] | 7.27
21 | GATATGTTTTCCTAGGTTCATGATGATAGGTAGTTT [XGTACX_negctrl_site217] | 7.07
22 | TTTGTGGTTACATGTGCACACACTTATTTCGTTCTT [CACACA_site1435] | 8.22
23 | TGTTAATATATCATTATGTTATAGGTTCAGCTGGGA [CACACA_negctrl_site401] | 6.82
24 | AATATATAAATTGACACACACATATATACATATATA [CACACA_site1213] | 7.04
25 | AAGGTGGTTATTAAATGTACACAGACATATACAAAA [XGTACX_site3007] | 7.04
26 | ATATGCTACATTATATGTACACACATATACATATAT [XGTACX_site1656] | 7.18
27 | TAATATAAAGAAATATCAATAATTTGGGCAAATGCC [GTGCAC_negctrl_site621] | 6.86
28 | AGGTAGAAAAAAGACACACACATTATATATATATAT [CACACA_site4367] | 9.34
29 | TTTTATGCATGTGAAGTGCAAAATAAAAAATAAAAT [GTGCAC_site9612] | 10.2
30 | TATATTTGTTAATTTTGTACGTATGGATATACATAA [XGTACX_site5100] | 7.13
31 | TATAAATATAGAATTACACACAATGTTCTATAAATA [CACACA_site7508] | 6.65
32 | AAAAAAATAATTTGTAGTACGATTCAATGAAAAGGC [XGTACX_site1287] | 7.44
33 | ATACATATATACATATGTACATATATATATATATAT [XGTACX_site8206] | 8.9
34 | TCTTTGAATTTTTTAACACACACATGGGTGGATATA [CACACA_site8474] | 6.9
35 | TTGAAAATGAAAAAATGTACTTAAAAAAAAGGAACA [XGTACX_site8664] | 7.33
36 | ATAAAATTGTATAACTGTACATATATATATATATAT [XGTACX_site5596] | 9.37
37 | CCCACAAAGGAATATACACACATATATATATATATA [CACACA_site4091] | 9.71
38 | TAAATATTTTTTTAGACACACATATATCTATGATAT [CACACA_site1107] | 6.71

Row | Sequence | gcPBM binding intensity (ln)
39 | ATGCTATATTAAAAACGTACAAACTGTTTAGAAAAA [XGTACX_site8943] | 7.01
40 | TTTTTTCTTAAAGACATATATTTATTTGGTAAAACA [XGTACX_negctrl_site243] | 6.85
41 | GGATATAACAGACACACACACACATATAAATATATT [CACACA_site7866] | 7.22
42 | CAAAATAAAAATTAATGTACATAAAAAATGAATATA [XGTACX_site1085] | 7.02
43 | TATTTACATTTATGTGCACACATTCCATTTGAAAGT [CACACA_site1954] | 8.85
44 | AATAGAAAAAAAAAATGTACACATATAAAAGCATAT [XGTACX_site6306] | 6.94
45 | CGGACATACATAGGAACATGCAAAATTTTTTATTTT [TGCATGCA_site575] | 6.78
46 | TATTTTCTTTTTCTTGTACACACATAATATGGATGA [CACACA_site8168] | 7.15
47 | TTTTTTTTTTTTTTTTGTACGTAAAAAAATATATAC [XGTACX_site1290] | 7.4
48 | TTGTTATATTACAGTAGTACATTTAAAATCTACTAC [XGTACX_site2620] | 7.02
49 | ATTTTTATTTACAACCCCAAAAAGGAAAAACATAAA [CACACA_negctrl_site1169] | 7.04
50 | AATATTTATACTATAACACACATACAGACAAAAAAA [CACACA_site6396] | 7.15
51 | TTACATTATATACATACACACCCACCCACAAAAAAA [CACACA_site8187] | 7.68
52 | ATAATATCATCAAACGCACACATACATAAATATATT [CACACA_site5230] | 7.33
53 | TATTTTTATAATATATGTACATATATATATATATTA [XGTACX_site5343] | 7.54
54 | ACATATTATATGAATACACACAAAAACTTATCGGTA [CACACA_site3439] | 6.83
55 | ACAGGAAAAAACAATTGTACATGTATATATATATAT [XGTACX_site7677] | 9.08
56 | ATATATATATATATATGTACATATTTTATTTGAAAT [XGTACX_site7411] | 9.07
